We go through one molecule from publication PMC8729885, “β-Amyloid Clustering around ASC Fibrils Boosts Its Toxicity in Microglia” (Cell reports, 2020).

This experiment addresses T1, Amyloid β-Protein (1-42) (HFIP-treated) (UniProt P05067 part only).
T1 construct: amyloid β peptide 1-42, cut product of the amyloid precursor protein (APP); numbers count on: the Aβ peptide; In the phagocytosis and degradation assays a FAM-labelled Aβ1-42 (Peptide Specialty Laboratories, ID# CEM112812FL) was used instead; also called Aβ; Aβ1-42; source: bought: Bachem AG (HFIP-treated), dissolved in DPBS; also in lysate of ASC-deficient mouse microglia that had been treated …
Kind of experiment: co-IP; cell-free: 1.75 μM ASC and 5 μM Aβ pre-incubated in serum-free medium O/N, then 1 h at RT with Protein G magnetic beads carrying anti-ASC (AL177) or anti-Aβ (82E1) in PBST; immunoblot for ASC and Aβ. The note with it: both partners purified.

B1: Full-length human ASC (apoptosis-associated speck-like protein containing a CARD), followed by a TEV protease cleavage site, mCherry and a C-terminal … (natural protein)
chain: [about 100 residues left out]AAKPGLHFIDQHRAALIARVTNVEWLLDALYGKVLTDEQYQAVRAEPTNPSKMRKLFSFTPAWNWTCKDLLLQALRESQSYLVEDLERS
notes: ASC (apoptosis-associated speck-like protein containing a CARD), human, full length; N-terminal PYD and C-terminal CARD; A TEV protease site lies between ASC and mCherry; Blots of treated cells show ASC-mCherry, ASC dimers and ASC monomers, so part of the protein may have lost mCherry; also called recombinant ASC; WT ASC; source: E. coli BL21(DE3), purified (pellet dissolved in 2 M Gdn-HCl, …)
With B1, the binding result was “binds”.
